In all, about 33,000 sequences were measured (“E-score (-0.5 to 0.5)”: median about -0.016, highest 2% from about 0.32 on). Some of the results follow.
molecular target: T1, Stp1 (UniProt B3LFK1); assay: PBM E-score (8-mer binding enrichment) (E-score (-0.5 to 0.5)); higher = stronger / more preferred TF binding; most listed sequences are background and not binding sites; conditions: protein concentration: 200 nM; construct: GST-full length
T1 sequence: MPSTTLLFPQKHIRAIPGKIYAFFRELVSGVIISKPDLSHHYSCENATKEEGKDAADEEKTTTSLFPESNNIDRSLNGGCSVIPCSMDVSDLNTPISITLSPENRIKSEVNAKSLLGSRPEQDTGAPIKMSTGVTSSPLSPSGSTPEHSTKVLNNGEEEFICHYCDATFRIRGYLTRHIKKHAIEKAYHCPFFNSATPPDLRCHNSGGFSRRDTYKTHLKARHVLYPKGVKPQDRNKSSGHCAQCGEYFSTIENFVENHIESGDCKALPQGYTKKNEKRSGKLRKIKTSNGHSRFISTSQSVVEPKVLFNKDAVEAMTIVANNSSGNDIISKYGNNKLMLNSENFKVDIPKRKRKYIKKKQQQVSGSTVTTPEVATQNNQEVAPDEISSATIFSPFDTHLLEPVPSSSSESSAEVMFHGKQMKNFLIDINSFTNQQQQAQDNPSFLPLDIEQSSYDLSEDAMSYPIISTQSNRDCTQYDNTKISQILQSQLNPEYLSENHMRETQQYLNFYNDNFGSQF
Experimental: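 Universal 'all 10-mer' protein binding microarrays (Agilent AMADID 015681) probed with GST-tagged S. cerevisiae TFs (full-length or DBD) made by in vitro transcription/translation (PURExpress), about 100-200 nM. Bound TF was detected with fluorescent anti-GST. Each ungapped 8-mer (which stands for itself and its reverse complement) is scored by the PBM enrichment score (E-score), a modified Wilcoxon-Mann-Whitney statistic from -0.5 to +0.5, computed with the Universal PBM Analysis Suite. Scale: above 0.35 generally sequence-specific binding.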

Sequence	PBM E-score
CTTAAGAA	0.143
AAACGGAC	0.00343
GAGCCTGC	-0.191
AATCGTCC	-0.119
CCAGTGAG	-0.106
CCTGTCCA	-0.323
CCACCGCG	-0.0193
TACGTCGA	-0.194
TACTCCGA	-0.225
CTAACATC	0.0135
ACAAGGCT	0.198
ATCATTGC	-0.0426
GCGGCGAC	0.434
ACAACCAC	0.136
CCACCGGA	0.0599
CCTCATAA	0.0904
AGTTGGTG	-0.0845
ATGGATTA	-0.0582
ACATGGCT	-0.137
CTGACGTC	-0.0523
ATCGCCCA	-0.213
AAATCGAC	0.138
AATTGGGT	0.29
GAGAGATC	-0.136
TCGATGCA	-0.102

Sequence	PBM E-score
CGTAGCAC	0.111
AAACGCTC	-0.089
AGACAAGC	-0.0506
CTTCGGAC	0.00313
TGATACCA	0.0111
CTTCTCAC	-0.0125
CGACCCAG	-0.171
CCCTCGGA	-0.115
CAGGCCGA	-0.228
ACAACGAT	0.00545
ACACGACA	0.0769
GTAGAGCA	-0.0188
TCCGTAAA	0.0695
AGCCGGCG	0.138
ACTCTGGG	-0.126
AGCGCTCG	-0.149
TCTGACCA	0.0759
CCTCGCAC	0.0528
AGGCCAGC	-0.0895
GATAACGC	-0.00971
CAGATACA	0.0984
ACCCCCCC	-0.311
ACCCCGGC	-0.392
CTCAAGTA	0.00886
CATGCATC	0.0342

Sequence	PBM E-score
ACCAAAAT	0.12
CGATAACG	-0.288
CCACGATC	0.144
GTCTTTGA	0.0952
AGCAGACG	0.0588
ACGTTTAT	0.0901
CGCTGCCA	-0.0245
TAGGTACA	-0.139
CAACATCA	0.0627
CCTGCGGA	0.0839
AAGTTAGT	0.0214
GGGGGGGA	-0.356
AAGTAACG	0.133
ACAGGGTA	-0.125
GGGGGTAA	-0.379
GGATTGAA	-0.0161
ATTCGAGC	-0.0496
TATAGACA	0.0363
GTATGAAA	0.116
AGGCGTTC	0.0316
GATGAGGA	-0.0567
CCCCTGCC	-0.198
AACAGGGT	-0.334
ATAGACAA	0.0683
AGTTGCGC	-0.0494

Sequence	PBM E-score
ATGGATAG	-0.128
TCACATGA	-0.139
GAATACGA	0.0211
GGGGACAA	-0.121
AACTACTG	-0.0275
CACGAGTA	0.216
ACAACTCA	0.102
CCAGACGG	-0.0852
CGGTGCGA	-0.109
AATTGGAA	0.0908
ATTGGAGA	0.0299
CGATGCCC	0.0311
TGCCGAAA	0.141
CCGCTATA	-0.0378
AATAGGAA	0.0273
AATCACCG	0.11
AGAGGTTA	-0.101
AGGCTATC	-0.093
AATTCGAT	0.156
GTACTCAA	0.00736
ACGTGGGA	-0.165
AAACCGTT	-0.0806
GTAGGCGA	0.135
AGTATAAG	0.0872
CGACAGTC	-0.226

Sequence	PBM E-score
CGAGAGTA	-0.0994
AGCAGCTG	-0.12
CGCTGGCC	-0.267
CCAGAGAG	-0.245
GTAGCCAA	-0.0741
AACTCGAT	0.0342
CTCATTGA	-0.115
AAGACCAC	-0.297
AGGATGGC	0.14
ACACTCCG	-0.00205
CAGAGTGA	-0.106
CAGTGTGC	-0.0685
ATAAGATA	0.176
CACAACAC	0.16
CAGTCCGG	-0.161
ATTGCTCC	-0.002
CCCTTTTC	-0.0962
AGAATCCC	0.0569
CTCGGGGC	-0.163
CTACGGTC	-0.118
AAATCATT	-0.0682
CTCCATTC	-0.264
CACAGTAC	-0.0949
ACGGGCAT	0.145
GAACGCTA	-0.153

Sequence	PBM E-score
GCAGGGAC	-0.274
GCTAGAGC	-0.046
GGGCAAAA	0.142
GTATAGCA	0.16
CCTTCCAA	-0.12
TACACCTA	0.00928
CATAGGCG	-0.157
GCATATAC	0.0783
ACGCGGTA	0.0505
GTTCAGTA	0.116
AGGCTGTG	-0.208
ACCTAGCC	-0.186
AACCCGGA	-0.157
ATGCCATC	0.21
CCGGTGCC	0.172
AAAGATTT	0.0306
CATTCGCC	0.143
CCTGACCG	-0.211
CGTTATCC	-0.068
AACAGACC	0.0691
CAACTCTG	-0.126
CTCGGATC	-0.0738
CTTCGCGA	-0.0616
ATTAAAGC	0.0702
CAGCGCTC	-0.109

Sequence	PBM E-score
TCACTCCA	-0.198
CGCGTAAC	0.0809
CGGTCAGA	-0.195
AGTCCCCA	-0.291
ATCGCCGA	0.212
TCTTATAA	0.0601
AAAAGGGT	-0.207
TCGGATAA	0.0764
ATCAGCCA	-0.126
TACGGGGA	0.0612
AGGCCATC	-0.122
TCAGGTAA	-0.131
AGCAGTTC	-0.0959
AAATGGAC	0.204
CGTTATAA	0.0748
GTACGGAA	0.165
CAAAAAGG	-0.0151
AGTTGTTC	0.0553
ATATCCGC	0.158
CTAATGTC	-0.0773
AGACTGTG	-0.193
TACCCGTA	0.155
